# From PubChem BioAssay AID485294 (National Center for Advancing Translational Sciences (NCATS), 2010)
# Screen size: about 370,000 compounds; about 150 (0.041%) were called active. The inconclusive results got no clear call from the source; some entries with a clear call stand among them for comparison. Calls come from the whole dose curve; as a rule, active = well fitted inhibition curve with a large enough effect; inconclusive = small, poorly fitted or top-dose-only effect; inactive = flat fitted curve, though single readings scatter. No potency is given beside an inconclusive call; the fits are too rough.
# Target: Beta-lactamase (Escherichia coli (strain K12)) (UniProt P00811)
# UniProt P00811, sequence (P00811 whole entry, looked up): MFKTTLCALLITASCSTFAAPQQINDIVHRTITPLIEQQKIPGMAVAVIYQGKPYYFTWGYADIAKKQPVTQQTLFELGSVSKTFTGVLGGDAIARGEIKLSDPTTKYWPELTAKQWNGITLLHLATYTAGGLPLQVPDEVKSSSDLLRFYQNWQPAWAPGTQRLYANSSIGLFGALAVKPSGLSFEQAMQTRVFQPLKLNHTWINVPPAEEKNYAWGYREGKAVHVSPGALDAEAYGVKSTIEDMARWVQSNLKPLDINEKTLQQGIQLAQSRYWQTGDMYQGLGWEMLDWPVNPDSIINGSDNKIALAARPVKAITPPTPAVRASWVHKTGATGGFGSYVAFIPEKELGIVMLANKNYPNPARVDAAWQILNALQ
# Test: qHTS Inhibitors of AmpC Beta-Lactamase (assay with detergent); note: nearly all actives have a fitted effect of over 25% in size
# Conditions: AmpC hydrolysis of nitrocefin, absorbance 480 nm, 0.01% Triton; series mostly up to 114 µM
# Summary of the method: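 20 mM phosphate pH 7.0 + 0.01% (detergent screen) or 0.0001% Triton X-100; 5.3 nM AmpC reagent; cpd preinc 15 min RT; nitrocefin (800 uM stock) to start; A480 q20 s × 4 min; Activity was normalised to no-enzyme and no-compound control wells.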
# Potency is the fitted concentration of half-maximal effect; tags give direction and shape of the fitted curve.
row,Compound,Potency
1,CC1CCN(c2c(NCC3CCC(C(=O)Nc4ccccn4)CC3)c(=O)c2=O)CC1 (stereo not drawn),"inconclusive [inhibitor, full curve, poor fit]"
2,COC(c1ccccc1)(c1ccccc1)C(Oc1nc(C)cc(C)n1)C(=O)O (stereo not drawn),"inconclusive [inhibitor, full curve, poor fit]"
3,O=C(NCc1ccccn1)c1nc(Cn2cc([N+](=O)[O-])cn2)no1,"inconclusive [inhibitor, full curve, poor fit]"
4,COc1cc(Cl)c(C)cc1NC(=O)COc1cc(C)nc(C(C)C)n1,"inconclusive [inhibitor, full curve, poor fit]"
5,COc1ccc(Cl)cc1NC(=O)CN(C)C(=O)c1cc2ccccc2cc1OC,"inconclusive [inhibitor, full curve, poor fit]"
6,CCOC(=O)Nc1ccc(C)cc1C,"inconclusive [inhibitor, single point]"
7,Cc1cc(C(=O)Nc2ccc(S(=O)(=O)N3CCOCC3)cc2)ccc1[N+](=O)[O-],"inconclusive [inhibitor, partial curve, poor fit]"
8,O=C(C[n+]1ccc(C(=O)c2ccccc2)cc1)Nc1ccc(C(F)(F)F)cc1,inactive
9,Cc1ccc(SCC(=O)OCC(=O)NC2CCCCCC2)cc1,inactive
10,Cc1nn(CCCC(=O)NCc2cccc(F)c2)c(=O)c2nn(-c3ccccc3)c(C)c12,inactive
11,Cn1c(SCC(=O)NC2CCCC2)nc2c(c1=O)SCC2,inactive
12,O=C(Nc1ccccc1)c1ccccc1CC[N+](=O)[O-],"inconclusive [inhibitor, partial curve, poor fit]"
13,Cc1cc(-c2c(C)n([O-])c(C)c(C)[n+]2=O)ccc1F,"inconclusive [inhibitor, full curve, poor fit]"
14,COc1ccc(/C=C/c2nc(S(=O)(=O)c3ccccc3)c(NCCCN(C)C)o2)cc1OC,inactive
15,CCN1CCN(C(=O)c2ccc3c(c2)N(Cc2ccccc2)C(=O)c2ccccc2S3=O)CC1 (stereo not drawn),inactive
16,C=CCNC(NC(=O)c1ccccc1)(C(=O)OCC)C(F)(F)F (stereo not drawn),"inconclusive [inhibitor, partial curve]"
17,COCCCn1c(SCC(=O)NC2CCCCC2)nnc1-c1ccco1,"inconclusive [inhibitor, full curve, poor fit]"
18,N/C(=N\OC(=O)Cc1cccs1)c1ccc(Br)cc1,"inconclusive [inhibitor, full curve, poor fit]"
19,COc1ccc(NC(=S)NCC2CCCO2)c(C)c1 (stereo not drawn),"inconclusive [inhibitor, full curve, poor fit]"
20,O=C(NCc1ccccc1)c1onc(CS(=O)(=O)c2ccc(Cl)cc2)c1C(=O)NCc1ccccc1,inactive
21,O=C(/C=C/c1c(Cl)cccc1Cl)N1CCOCC1,"inconclusive [inhibitor, full curve, poor fit]"
22,CCCNC(=O)c1c(NC(=O)C2COc3ccccc3O2)sc2c1CCCC2 (stereo not drawn),"inconclusive [inhibitor, full curve, poor fit]"

row,Compound,Potency
1,NC12CC3CC(CC(C3)C1)C2,"inconclusive [inhibitor, full curve, poor fit]"
2,CCOc1ccc(OCCC(=O)OCC(=O)Nc2cc(OCC)c(N3CCOCC3)cc2OCC)cc1,"inconclusive [inhibitor, full curve, poor fit]"
3,OCC[C@H]1C[C@H](O)[C@@H](O)[C@@]2(CCCCO2)O1,"inconclusive [inhibitor, full curve, poor fit]"
4,O=c1oc2ccccc2c2c1ncn2CCN1CCOCC1,"inconclusive [inhibitor, partial curve, poor fit]"
5,COc1ccc(-n2cc(CNCCCn3ccnc3)c(-c3cccc(F)c3)n2)cc1,inactive
6,COc1ccccc1N1CCN(S(=O)(=O)c2cc(C)sc2C)CC1,"inconclusive [inhibitor, partial curve, poor fit]"
7,Cc1ccc(/C=C/C(=O)N2CCCN(C(=O)/C=C/c3ccc(C)cc3)CC2)cc1,"inconclusive [inhibitor, partial curve]"
8,Cc1ccc(CNC(=O)CCS(=O)(=O)c2cccc3nonc23)cc1,inactive
9,O=C(Nc1ccc(Cl)cc1)N[C@@H]1c2c(ccc3ccccc23)OC[C@@H]1CO,inactive
10,CN(C)c1ccc(S(=O)(=O)N2CCCCC2)cc1NC(=O)CN1C(=O)NC2(CCCC2)C1=O,"inconclusive [inhibitor, full curve, poor fit]"
11,CCOc1ccccc1N(CC(=O)N1CCCCCC1)S(C)(=O)=O,"inconclusive [inhibitor, full curve, poor fit]"
12,O=c1oc2c(CN3CCOCC3)c(O)ccc2c2c1CCC2,"inconclusive [inhibitor, partial curve, poor fit]"
13,c1coc(CNC2CCCCCCC2)c1,"inconclusive [inhibitor, full curve, poor fit]"
14,Cc1cccc(-n2c(=O)c3c(n4cnnc24)-c2ccccc2CC32CCCCC2)c1,"inconclusive [inhibitor, full curve, poor fit]"
15,N#CCSc1nc(Nc2ccc3c(c2)OCO3)c2ccccc2n1,inactive
16,O=C(CN(C(=O)CNS(=O)(=O)c1ccc(F)cc1)C1CCCC1)NCc1ccco1,inactive
17,CCCNS(=O)(=O)c1ccc(CCC(=O)N2CCC(C)CC2)cc1,"inconclusive [inhibitor, single point]"
18,COc1ccc2c(c1)c1c(c(=O)n(-c3ccccc3)c(=O)n1CC(=O)Nc1ccc(F)cc1)n2C,inactive
19,COc1ccc(N2CC(NC(=O)c3ccc4c(c3)OCO4)CC2=O)cc1OC (stereo not drawn),inactive
20,N#C/C(=C\c1ccc(O)c(O)c1)C(=O)c1ccc(O)c(O)c1,"inconclusive [inhibitor, full curve]"
21,O=c1cc(N2CCc3ccccc3C2)[nH]c(=O)n1Cc1ccc(F)cc1,"inconclusive [inhibitor, partial curve, poor fit]"
